Experimental findings from the supplement of paper PMC9927326 are described below.

Experiment in all cases: CLSI broth microdilution.
(In general: In broth dilution the organism is exposed to a series of concentrations in liquid medium.)

Compound in one assay: CCC(C)n1ncn(-c2ccc(N3CCN(c4ccc(OCC5COC(Cn6cncn6)(c6ccc(Cl)cc6Cl)O5)cc4)CC3)cc2)c1=O [itraconazole]
Compound in a further assay: CCCCCOc1ccc(-c2cc(-c3ccc(C(=O)N[C@H]4C[C@@H](O)[C@@H](O)NC(=O)[C@@H]5[C@@H](O)[C@@H](C)CN5C(=O)[C@H]([C@H](O)CC(N)=O)NC(=O)[C@H]([C@H](O)[C@@H](O)c5ccc(O)c(OS(=O)(=O)O)c5)NC(=O)[C@@H]5C[C@@H](O)CN5C(=O)[C@H]([C@@H](C)O)NC4=O)cc3)no2)cc1 [micafungin]
Compound in the next assay: CCCCCOc1ccc(-c2ccc(-c3ccc(C(=O)N[C@H]4C[C@@H](O)[C@@H](O)NC(=O)[C@@H]5[C@@H](O)[C@@H](C)CN5C(=O)[C@H]([C@@H](C)O)NC(=O)[C@H]([C@H](O)[C@@H](O)c5ccc(O)cc5)NC(=O)[C@@H]5C[C@@H](O)CN5C(=O)[C@H]([C@@H](C)O)NC4=O)cc3)cc2)cc1 [anidulafungin]
Compound in a further assay: CC[C@@H]([C@H](C)O)n1ncn(-c2ccc(N3CCN(c4ccc(OC[C@@H]5CO[C@@](Cn6cncn6)(c6ccc(F)cc6F)C5)cc4)CC3)cc2)c1=O [posaconazole]
Compound in another assay: CC[C@H](C)C[C@H](C)CCCCCCCCC(=O)N[C@H]1C[C@@H](O)[C@@H](NCCN)NC(=O)[C@@H]2[C@@H](O)CCN2C(=O)[C@H]([C@H](O)CCN)NC(=O)[C@H]([C@H](O)[C@@H](O)c2ccc(O)cc2)NC(=O)[C@@H]2C[C@@H](O)CN2C(=O)[C@H]([C@@H](C)O)NC1=O [caspofungin]
Compound in the next assay: C[C@@H](c1ncncc1F)[C@](O)(Cn1cncn1)c1ccc(F)cc1F [voriconazole]
Compound in a further assay: C[C@@H]1[C@H](O)[C@@H](C)/C=C/C=C/C=C/C=C/C=C/C=C/C=C/[C@H](O[C@@H]2O[C@H](C)[C@@H](O)[C@H](N)[C@@H]2O)C[C@@H]2O[C@](O)(C[C@@H](O)C[C@@H](O)[C@H](O)CC[C@@H](O)C[C@@H](O)CC(=O)O[C@H]1C)C[C@H](O)[C@H]2C(=O)O [amphotericin B]
Compound in a further assay: Nc1[nH]c(=O)ncc1F [flucytosine]
Compound in the next assay: OC(Cn1cncn1)(Cn1cncn1)c1ccc(F)cc1F [fluconazole]

MIC of clinical C. albicans isolates, CLSI broth microdilution (ranges and time not stated); higher = less susceptible. Call: susceptible or wild type [S] / resistant or non-wild type [R] by CLSI breakpoints or epidemiological cut-offs; intermediate and dose-dependent carry no call here (the paper groups them with resistant). '<=' and '>=' mark each drug's lowest and highest value, inferred; the source prints them plain. Isolates are numbered anew. Some results are limits rather than exact numbers.

A word on the MIC: it is the least concentration at which growth counts as inhibited. As to “Candida albicans isolate 184 (Erg11p: V437I,E266D, Fur1p: WT, Tac1p: S937L,I895T,L695F,I558V,F189S,L131I)”, the MIC in the assay with itraconazole was 0.03 mg/L [S]; with micafungin, at most 0.008 mg/L [S]; with anidulafungin, at most 0.015 mg/L [S]; with posaconazole, 0.03 mg/L [S]; with caspofungin it was 0.03 mg/L [S]; with voriconazole, at most 0.008 mg/L [S]. Also, the minimal inhibitory concentration (MIC) in the assay with amphotericin B was found to be 1 mg/L [S]; with flucytosine, 0.12 mg/L [S]; with fluconazole it was 0.5 mg/L [S].
Consider “Candida albicans isolate 185 (Erg11p: WT, Fur1p: WT, Tac1p: I558V,A377V,F189S,N174D,M170I,K87N)”, for which the MIC with itraconazole was 0.03 mg/L [S]; in the assay with micafungin it was 0.015 mg/L [S]; with anidulafungin it was at most 0.015 mg/L [S]; with posaconazole, 0.015 mg/L [S]; with caspofungin, 0.015 mg/L [S]; with voriconazole, at most 0.008 mg/L [S]. Further, the figures for the MIC with amphotericin B, in the assay with flucytosine and in the assay with fluconazole were 0.5 mg/L [S], at most 0.06 mg/L [S] and 0.25 mg/L [S], respectively.
On to “Candida albicans isolate 186 (Erg11p: E266D, Fur1p: WT, Tac1p: C908Y,A377V,N174D,M170I,I109N,K87N)”, for which the MIC with itraconazole is 0.03 mg/L [S]; with micafungin it was at most 0.008 mg/L [S]; with anidulafungin, 0.03 mg/L [S]; with posaconazole, 0.03 mg/L [S]; with caspofungin, 0.03 mg/L [S]; with voriconazole, at most 0.008 mg/L [S]. Also, the MIC in the assay with amphotericin B was 0.5 mg/L [S]; with flucytosine, at most 0.06 mg/L [S]; in the assay with fluconazole, 0.5 mg/L [S].
With “Candida albicans isolate 187 (Erg11p: V488I,E266D, Fur1p: G159V, Tac1p: N896S,A377V,F189S,N174D,M170I,K87N)”, the MIC was at most 0.015 mg/L [S] with itraconazole; 0.015 mg/L [S] with micafungin; 0.06 mg/L [S] in the assay with anidulafungin; 0.015 mg/L [S] with posaconazole; 0.06 mg/L [S] in the assay with caspofungin; at most 0.008 mg/L [S] with voriconazole. In addition, the MIC in the assay with amphotericin B is 0.25 mg/L [S]; in the assay with flucytosine it was at most 0.06 mg/L [S]; with fluconazole it was 0.5 mg/L [S].
Take “Candida albicans isolate 188 (Erg11p: WT, Fur1p: WT, Tac1p: I558V,A377V,F189S,N174D,M170I,K87N)”: the MIC with itraconazole is 0.06 mg/L [S]; in the assay with micafungin, 0.015 mg/L [S]; with anidulafungin it was at most 0.015 mg/L [S]; in the assay with posaconazole, 0.03 mg/L [S]; with caspofungin, 0.03 mg/L [S]; with voriconazole, at most 0.008 mg/L [S]. Also, the MIC with amphotericin B was 0.5 mg/L [S]; with flucytosine, at most 0.06 mg/L [S]; with fluconazole, 0.5 mg/L [S].
“Candida albicans isolate 189 (Erg11p: WT, Fur1p: R101C, Tac1p: WT)”: the MIC is 0.03 mg/L [S] in the assay with itraconazole; 0.015 mg/L [S] with micafungin; at most 0.015 mg/L [S] with anidulafungin; 0.015 mg/L [S] with posaconazole; 0.015 mg/L [S] in the assay with caspofungin; at most 0.008 mg/L [S] with voriconazole. Besides, the MIC with amphotericin B is 0.5 mg/L [S]; with flucytosine, 0.25 mg/L [S]; with fluconazole it was 0.25 mg/L [S].
As to “Candida albicans isolate 190 (Erg11p: S405F,Y132H, Fur1p: WT, Tac1p: A377V,F189S,N174D,M170I,K87N)”, the MIC in the assay with itraconazole came out at 0.12 mg/L [S]; with micafungin, 0.015 mg/L [S]; with anidulafungin, 0.12 mg/L [S]; with posaconazole, 0.06 mg/L [S]; in the assay with caspofungin it was 0.06 mg/L [S]; in the assay with voriconazole, 0.5 mg/L. The MIC is 0.5 mg/L [S] in the assay with amphotericin B, at most 0.06 mg/L [S] with flucytosine and 64 mg/L [R] with fluconazole.
As for “Candida albicans isolate 191 (Erg11p: WT, Fur1p: WT, Tac1p: N896S)”, the MIC with itraconazole was 0.03 mg/L [S]; with micafungin, at most 0.008 mg/L [S]; with anidulafungin, 0.12 mg/L [S]; in the assay with posaconazole, 0.015 mg/L [S]; with caspofungin, 0.03 mg/L [S]; with voriconazole, at most 0.008 mg/L [S]. For the same test system, the MIC was 0.25 mg/L [S] with amphotericin B, at most 0.06 mg/L [S] with flucytosine and 0.25 mg/L [S] with fluconazole.
As for “Candida albicans isolate 192 (Erg11p: V488I,E266D, Fur1p: WT, Tac1p: N896S,I558V,A377V,F189S,N174D,M170I,K87N)”, the MIC with itraconazole was 0.03 mg/L [S]; with micafungin, 0.015 mg/L [S]; with anidulafungin, 0.06 mg/L [S]; with posaconazole, 0.015 mg/L [S]; with caspofungin it was 0.03 mg/L [S]; with voriconazole it was at most 0.008 mg/L [S]. In addition, the figures for the MIC with amphotericin B, in the assay with flucytosine and in the assay with fluconazole were 0.25 mg/L [S], at most 0.06 mg/L [S] and 0.5 mg/L [S], respectively.
For the test system “Candida albicans isolate 193 (Erg11p: E266D,G129A, Fur1p: WT, Tac1p: R869Q,L695F,I558V,A377V,F189S,M170V,L131I)”, the MIC with itraconazole was 0.06 mg/L [S]; in the assay with micafungin, at most 0.008 mg/L [S]; in the assay with anidulafungin, at most 0.015 mg/L [S]; in the assay with posaconazole it was 0.03 mg/L [S]; with caspofungin, 0.03 mg/L [S]; with voriconazole it was 0.015 mg/L [S]. Moreover, the MIC is 0.5 mg/L [S] with amphotericin B, at most 0.06 mg/L [S] with flucytosine and 1 mg/L [S] with fluconazole.
Regarding “Candida albicans isolate 194 (Erg11p: Y132H,T123I, Fur1p: R101C, Tac1p: WT)”, the MIC is 0.03 mg/L [S] in the assay with itraconazole; 0.015 mg/L [S] in the assay with micafungin; at most 0.015 mg/L [S] with anidulafungin; 0.015 mg/L [S] with posaconazole; 0.015 mg/L [S] with caspofungin; 0.25 mg/L with voriconazole. The MIC in the assay with amphotericin B was 0.25 mg/L [S]; with flucytosine it was 0.25 mg/L [S]; with fluconazole it was 2 mg/L.
With “Candida albicans isolate 195 (Erg11p: K342R,E266D, Fur1p: WT, Tac1p: I558V,A377V,F189S,N174D,M170I,K87N)”, the MIC in the assay with itraconazole was 0.03 mg/L [S]; with micafungin, at most 0.008 mg/L [S]; with anidulafungin it was 0.03 mg/L [S]; with posaconazole, 0.015 mg/L [S]; in the assay with caspofungin it was 0.03 mg/L [S]; with voriconazole, at most 0.008 mg/L [S]. Also, the MIC in the assay with amphotericin B was 0.5 mg/L [S]; with flucytosine it was at most 0.06 mg/L [S]; with fluconazole it was 0.5 mg/L [S].
With “Candida albicans isolate 196 (Erg11p: E266D,G129A, Fur1p: WT, Tac1p: R869Q,L695F,I558V,A377V,F189S,M170V,L131I)”, the MIC was 0.03 mg/L [S] with itraconazole; 0.015 mg/L [S] with micafungin; at most 0.015 mg/L [S] with anidulafungin; 0.015 mg/L [S] with posaconazole; 0.015 mg/L [S] in the assay with caspofungin; at most 0.008 mg/L [S] with voriconazole. The MIC is 0.25 mg/L [S] with amphotericin B, at most 0.06 mg/L [S] with flucytosine and 0.5 mg/L [S] with fluconazole.
Consider “Candida albicans isolate 197 (Erg11p: D153E, Fur1p: WT, Tac1p: N896S)”, for which the MIC with itraconazole was 0.03 mg/L [S]; with micafungin, 0.015 mg/L [S]; with anidulafungin, 0.03 mg/L [S]; with posaconazole, 0.015 mg/L [S]; with caspofungin, 0.03 mg/L [S]; with voriconazole, at most 0.008 mg/L [S]. In addition, the MIC was 0.25 mg/L [S] with amphotericin B, at most 0.06 mg/L [S] in the assay with flucytosine and 0.5 mg/L [S] in the assay with fluconazole.
For “Candida albicans isolate 198 (Erg11p: G448E,Y132H, Fur1p: R101C, Tac1p: WT)”, the MIC in the assay with itraconazole is 0.12 mg/L [S]; with micafungin, 0.015 mg/L [S]; with anidulafungin it was at most 0.015 mg/L [S]; with posaconazole it was 0.06 mg/L [S]; with caspofungin it was 0.03 mg/L [S]; in the assay with voriconazole, 0.5 mg/L. Besides, the MIC with amphotericin B was 0.25 mg/L [S]; with flucytosine, at most 0.06 mg/L [S]; with fluconazole it was 16 mg/L [R].
On to “Candida albicans isolate 199 (Erg11p: WT, Fur1p: WT, Tac1p: I558V,A377V,F189S,N174D,M170I,K87N)”, for which the MIC in the assay with itraconazole was at most 0.015 mg/L [S]; in the assay with micafungin, at most 0.008 mg/L [S]; with anidulafungin it was 0.06 mg/L [S]; with posaconazole, 0.015 mg/L [S]; with caspofungin it was 0.03 mg/L [S]; in the assay with voriconazole, at most 0.008 mg/L [S]. Further, the figures for the minimum inhibitory concentration (MIC) with amphotericin B, in the assay with flucytosine and with fluconazole were 0.5 mg/L [S], at most 0.06 mg/L [S] and 0.25 mg/L [S], respectively.
